Measured values from the RNAGym collection of RNA variant scans (doi:10.1073/pnas.2313332121).
Variants at the background level are over-represented here.

B1: TPR 5TU (parent)
chain: GGAUCUUCUCGAUCUAACAAAAAAGACAAAUCUGCCACAAAGCUUGAGAGCAUCUUCGGAUGCAGAGGCGGCAGCCUUCGGUGGCGCGAUAGCGCCAACGUUCUCAACUAUGACACGCAAAACGCGUGCUCCGUUGAAUGGAGUUUAUCAUG

Variants of: B1
Assay: polymerase ribozyme fitness, log enrichment relative to wild type (log ratio); higher = more active; in vitro selection for triplet polymerase activity
Summary of the method: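 In triplicate, a single round of in vitro selection was run on each mutant library, PCR-built and transcribed, covering one subunit of a heterodimeric triplet polymerase ribozyme. Frozen incubation at −7 °C followed annealing with a biotinylated primer, partner subunit and triplets, and extended constructs were then gel-excised, streptavidin-captured and taken through RT-PCR. Fitness is the logarithm of genotype enrichment over wild-type enrichment, from inverse-variance-weighted replicate averages of Illumina-sequenced inputs and outputs. […] only genotypes with ≥10 input reads and ≥1 read per output were kept.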

A16U A23C A40G U55A U61A C87A C103G U109G C114U and A16U G50U U61A C105A C123U cannot be ordered by “polymerase ribozyme fitness (log ratio)” value: ≤ -4.2 for the first, ≤ -4.2 for the second.

A16U C27G U77A G84U G126A and A16C U33A C93A U148C cannot be ordered by “polymerase ribozyme fitness (log ratio)” value: ≤ -4.2 for the first, ≤ -4.2 for the second.

A16G A21C U44G A49C U53A C79G C85G G126A and A16U A40G G58A U77C G92U cannot be ordered by “polymerase ribozyme fitness (log ratio)” value: ≤ -4.2 for the first, ≤ -4.2 for the second.

Compared with A16U U53A A66G C87A, A16U G58A C93A is higher in “polymerase ribozyme fitness (log ratio)” value: ≤ -4.2 for the first, -3.46 for the second.

A16U A60U G86A C114U and A16G A20U U33G C85A G94A A150C cannot be ordered by “polymerase ribozyme fitness (log ratio)” value: ≤ -4.2 for the first, ≤ -4.2 for the second.

A16U A29U G59C G62C G80C C103U A137C and A16G A37U U44A C96U G152U cannot be ordered by “polymerase ribozyme fitness (log ratio)” value: ≤ -4.2 for the first, ≤ -4.2 for the second.

Going from A16G A23C A41G U61A G83U G86A to A16U U82G C87U A122C, the “polymerase ribozyme fitness (log ratio)” value rises from ≤ -4.2 to -2.32.

A17C A19G C51U G59U C75A A91U C116G A121C and A16U C87A G100A cannot be ordered by “polymerase ribozyme fitness (log ratio)” value: ≤ -4.2 for the first, ≤ -4.2 for the second.

A16G A21U A52C U53A C87A and A16G U33A C36A U56A C76A C85A A119G cannot be ordered by “polymerase ribozyme fitness (log ratio)” value: ≤ -4.2 for the first, ≤ -4.2 for the second.

Going from A16U C51U C95U to A16U A28C A40C A52C G74U C87A A122U U144G C149G, the “polymerase ribozyme fitness (log ratio)” value falls from -2.98 to ≤ -4.2.

First: A16G A37U U134G
Second: A16G U31A A39U C132U G136A
The “polymerase ribozyme fitness (log ratio)” value of the first is lower: -3.68 for the first, -3.4 for the second.

A16G C43U G71C C85U C103G C105U G141A and A16G U33G U90G C114U G117U A138C A150G cannot be ordered by “polymerase ribozyme fitness (log ratio)” value: ≤ -4.2 for the first, ≤ -4.2 for the second.

A16G A26U A60U G67C G80U A106C C149G and A16U A20C A41U C87G A98G cannot be ordered by “polymerase ribozyme fitness (log ratio)” value: ≤ -4.2 for the first, ≤ -4.2 for the second.

A16U G50A A60C G83C G141C and A16U A49C G62A G92A A150U cannot be ordered by “polymerase ribozyme fitness (log ratio)” value: ≤ -4.2 for the first, ≤ -4.2 for the second.

A16U C32A C35G A47C G58C G68A G70U C96G G126C and A16U G48C C85U U102A G112C cannot be ordered by “polymerase ribozyme fitness (log ratio)” value: ≤ -4.2 for the first, ≤ -4.2 for the second.

A16G A47C C79G G81A U101G and A16G C87A G136A cannot be ordered by “polymerase ribozyme fitness (log ratio)” value: ≤ -4.2 for the first, ≤ -4.2 for the second.

A16G A17U A52C A91U C93U U111G C123U G124U G133A and A16C G92C U102A G133C A150G cannot be ordered by “polymerase ribozyme fitness (log ratio)” value: ≤ -4.2 for the first, ≤ -4.2 for the second.

Compared with A16G C35A, A16G C43G C57U G84A C85A A91C U127C is lower in “polymerase ribozyme fitness (log ratio)” value: -3.53 for the first, ≤ -4.2 for the second.

First: A16U A47G C79U G81C C105G U130A
Second: A17C A21U G25U G84A
The “polymerase ribozyme fitness (log ratio)” value of the first is lower: ≤ -4.2 for the first, -2.95 for the second.

A16G C35A C76G C116U A120C U139C and A16U A40G A66G C99G U104G G152U cannot be ordered by “polymerase ribozyme fitness (log ratio)” value: ≤ -4.2 for the first, ≤ -4.2 for the second.

A16G G84A C85U C95A A107C C123A and A16U G59A C69G A91G cannot be ordered by “polymerase ribozyme fitness (log ratio)” value: ≤ -4.2 for the first, ≤ -4.2 for the second.

A16U C96A C116U G140A and A16U G50U G58C C118G A120C G124C G143U cannot be ordered by “polymerase ribozyme fitness (log ratio)” value: ≤ -4.2 for the first, ≤ -4.2 for the second.

Compared with A16G A28U C87A A107C, A16G C36G is higher in “polymerase ribozyme fitness (log ratio)” value: ≤ -4.2 for the first, -4.12 for the second.

A16G A20G A49C G80U G88A C129A and A16U A110U G140C cannot be ordered by “polymerase ribozyme fitness (log ratio)” value: ≤ -4.2 for the first, ≤ -4.2 for the second.

A16G C51U C85G U127G A138U and A16U U53A C75A C93A C103G U130A cannot be ordered by “polymerase ribozyme fitness (log ratio)” value: ≤ -4.2 for the first, ≤ -4.2 for the second.

Compared with A16C G83U, A16U G46C A110C U111C is lower in “polymerase ribozyme fitness (log ratio)” value: -1.56 for the first, ≤ -4.2 for the second.

A16G C69U C85U C131G U146G and A16G G46C A73G C87A C116U A150G cannot be ordered by “polymerase ribozyme fitness (log ratio)” value: ≤ -4.2 for the first, ≤ -4.2 for the second.

A16G C18U C27U A28U A40C G50C U56A G84C C125A G143A U146G and A16U A37G C95G A142G cannot be ordered by “polymerase ribozyme fitness (log ratio)” value: ≤ -4.2 for the first, ≤ -4.2 for the second.

A16G A49U C63U C72U G88C G141C and A16U A24U U61A A91C C99G C105G C114U U144G cannot be ordered by “polymerase ribozyme fitness (log ratio)” value: ≤ -4.2 for the first, ≤ -4.2 for the second.

First: A16G A98U
Second: A16G G86U
The “polymerase ribozyme fitness (log ratio)” value of the first is higher: -1.65 for the first, -2.72 for the second.

A16G A37C A52G A120U G143U and A16U C32G A60G G88A C105A U148A cannot be ordered by “polymerase ribozyme fitness (log ratio)” value: ≤ -4.2 for the first, ≤ -4.2 for the second.

A16U A26C G74A C99G G128U and A16G U33G C95G cannot be ordered by “polymerase ribozyme fitness (log ratio)” value: ≤ -4.2 for the first, ≤ -4.2 for the second.

A16U C54A G58C A91U C95G A142U and A16U A23U A29G C93A cannot be ordered by “polymerase ribozyme fitness (log ratio)” value: ≤ -4.2 for the first, ≤ -4.2 for the second.

A16G U56A G86U C103G U135A G152A and A16U A22C U53A G84C A122G U127A G140U cannot be ordered by “polymerase ribozyme fitness (log ratio)” value: ≤ -4.2 for the first, ≤ -4.2 for the second.

A16G A28C C36A U44A G48C A49C C76G U77C A91U C103G U135C G141C and A16U U56A G83A U109C U111G cannot be ordered by “polymerase ribozyme fitness (log ratio)” value: ≤ -4.2 for the first, ≤ -4.2 for the second.

A16G U82G G100C A142G and A16U A20C G83C C96A A107G cannot be ordered by “polymerase ribozyme fitness (log ratio)” value: ≤ -4.2 for the first, ≤ -4.2 for the second.

First: A16C U44A C87A
Second: A16G A22U A47C C95A C96U
The “polymerase ribozyme fitness (log ratio)” value of the first is lower: ≤ -4.2 for the first, -3.89 for the second.

A16G G46U U61A G68U and A16G C57G G86A C96U C99U G117A A137U cannot be ordered by “polymerase ribozyme fitness (log ratio)” value: ≤ -4.2 for the first, ≤ -4.2 for the second.

Going from A16G C38U G50C U55A C57U C85G A120G A137U G143C to A17C, the “polymerase ribozyme fitness (log ratio)” value rises from ≤ -4.2 to 0.315.

First: A17C A30C
Second: A16C U44G A49U U55A U56A G70U A89U C95U A115U C118G A122U
The “polymerase ribozyme fitness (log ratio)” value of the first is higher: -3.82 for the first, ≤ -4.2 for the second.

A16G A17U G42C G70A and A16G A26U G34U A91U A138U cannot be ordered by “polymerase ribozyme fitness (log ratio)” value: ≤ -4.2 for the first, ≤ -4.2 for the second.

With A16U C85U C103G U144A the “polymerase ribozyme fitness (log ratio)” value was ≤ -4.2.
